Assay results as given in the supplement of paper PMC9174493.
This is one part of the list. Single values of this set are uncertain. Values with irradiation are relative to irradiated vehicle.

Legend:
A549-Dual [1] = experiment: NF-kB reporter (SEAP) activity, viability-corrected, relative to vehicle (fold change vs vehicle); higher = more activation of STING-IRF / NF-kB immune response reporter
A549-Dual [2] = experiment: ISRE reporter (Lucia luciferase) activity, viability-corrected, relative to vehicle (fold change vs vehicle); higher = more activation of STING-IRF / NF-kB immune response reporter
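For NF-kB reporter (SEAP) activity, viability-corrected, relative to vehicle in this document: viability correction based on the alamar blue assay, with concentrations leaving 10% survival or less dropped.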

Row | SMILES | NF-kB reporter (A549-Dual [1]; 0.1 µM, irradiation: 8 Gy/4 fr) | NF-kB reporter (A549-Dual [1]; 0.1 µM, irradiation: none) | NF-kB reporter (A549-Dual [1]; 0.3 µM, irradiation: 8 Gy/4 fr) | NF-kB reporter (A549-Dual [1]; 0.3 µM, irradiation: none) | NF-kB reporter (A549-Dual [1]; 1 µM, irradiation: 8 Gy/4 fr) | NF-kB reporter (A549-Dual [1]; 1 µM, irradiation: none) | NF-kB reporter (A549-Dual [1]; 3 µM, irradiation: 8 Gy/4 fr) | NF-kB reporter (A549-Dual [1]; 3 µM, irradiation: none) | NF-kB reporter (A549-Dual [1]; 10 µM, irradiation: 8 Gy/4 fr) | NF-kB reporter (A549-Dual [1]; 10 µM, irradiation: none) | ISRE reporter (A549-Dual [2]; 0.1 µM, irradiation: 8 Gy/4 fr) | ISRE reporter (A549-Dual [2]; 0.1 µM, irradiation: none) | ISRE reporter (A549-Dual [2]; 0.3 µM, irradiation: 8 Gy/4 fr) | ISRE reporter (A549-Dual [2]; 0.3 µM, irradiation: none) | ISRE reporter (A549-Dual [2]; 1 µM, irradiation: 8 Gy/4 fr) | ISRE reporter (A549-Dual [2]; 1 µM, irradiation: none) | ISRE reporter (A549-Dual [2]; 3 µM, irradiation: 8 Gy/4 fr) | ISRE reporter (A549-Dual [2]; 3 µM, irradiation: none) | ISRE reporter (A549-Dual [2]; 10 µM, irradiation: 8 Gy/4 fr) | ISRE reporter (A549-Dual [2]; 10 µM, irradiation: none)
1 | CC1=C(/C=C/C(C)=C/C=C/C(C)=C/C(=O)Nc2ccc(O)cc2)C(C)(C)CCC1 [Fenretinide] | 1.2 | 1.3 | 0.944 | 1.35 | 1.05 | 1.76 | 0.764 | 1.34 | 0.597 | 1.12 | 1.2 | 1.64 | 1.21 | 1.21 | 0.841 | 1.48 | 0.522 | 0.535 | 0.281 | 0.579
2 | CN1CCC(=C2c3ccccc3CCc3cccnc32)CC1.O=C(O)/C=C\C(=O)O.O=C(O)/C=C\C(=O)O [Azatadine dimaleate] | 0.857 | 1.1 | 1.01 | 1.55 | 1.21 | 1.04 | 0.925 | 1.04 | 0.973 | 0.883 | 0.969 | 0.926 | 0.916 | 0.913 | 0.825 | 0.806 | 0.881 | 1.16 | 1.07 | 0.929
3 | O=C1OC(OC(=O)c2cccnc2Nc2cccc(C(F)(F)F)c2)c2ccccc21 (stereo not given) [Talniflumate] | 0.945 | 1.08 | 1 | 0.868 | 1.01 | 0.773 | 1.07 | 0.845 | 0.765 | 0.998 | 1.01 | 0.856 | 0.853 | 0.626 | 0.692 | 0.514 | 0.729 | 0.788 | 0.659 | 0.863
4 | Nc1nc(=O)c2c(CCc3ccc(C(=O)NC(CCC(=O)[O-])C(=O)[O-])cc3)c[nH]c2[nH]1.[Na+].[Na+] (stereo not given) [Pemetrexed] | 1.22 | 1.52 | 1.27 | 1.78 | 1.27 | 2.14 | 1.3 | 1.66 | 1.11 | 1.36 | 1.28 | 2.69 | 0.981 | 3.05 | 1.26 | 3.2 | 0.999 | 2.3 | 0.794 | 2.21
5 | NC(=O)NO [Hydroxyurea] | 0.917 | 0.937 | 0.924 | 0.975 | 0.811 | 0.976 | 1.01 | 0.834 | 0.904 | 0.897 | 1.14 | 0.937 | 1.07 | 1.02 | 0.876 | 0.967 | 1.03 | 0.846 | 1.02 | 0.917
6 | S=c1nc[nH]c2nc[nH]c12 [Mercaptopurine (6-MP)] | 0.924 | 0.999 | 0.893 | 0.914 | 0.774 | 0.85 | 0.781 | 0.838 | 0.832 | 0.943 | 1.09 | 0.999 | 1.06 | 0.813 | 0.735 | 0.774 | 0.69 | 0.719 | 0.677 | 0.743
7 | C=CC(=O)Nc1cc(Nc2nccc(-c3cn(C)c4ccccc34)n2)c(OC)cc1N(C)CCN(C)C [Osimertinib (AZD9291)] | 0.924 | 0.975 | 0.915 | 1.05 | 1.02 | 1.01 | 1.02 | 0.874 | 1.14 | 1.15 | 0.971 | 0.974 | 0.964 | 1.19 | 1.12 | 1.12 | 1.18 | 1.71 | 1.41 | 2.52
8 | O=NN(CCCl)C(=O)NCCCl [Carmustine] | 0.901 | 0.988 | 0.858 | 0.928 | 0.924 | 0.982 | 0.966 | 0.997 | 1.04 | 0.962 | 0.965 | 1.1 | 0.914 | 0.999 | 0.995 | 1.05 | 1.19 | 0.833 | 1.06 | 0.939
9 | Cn1nnc2c(C(N)=O)ncn2c1=O [Temozolomide] | 0.837 | 0.917 | 0.917 | 1.01 | 0.769 | 0.961 | 0.874 | 0.843 | 0.749 | 0.951 | 0.881 | 0.859 | 0.973 | 0.866 | 0.755 | 0.899 | 0.826 | 0.764 | 0.761 | 0.806
10 | CS(=O)(=O)O.Cc1ccc(NC(=O)c2ccc(CN3CCN(C)CC3)cc2)cc1Nc1nccc(-c2cccnc2)n1 [Imatinib Mesylate (STI571)] | 0.863 | 0.948 | 0.902 | 1.12 | 0.832 | 1.14 | 0.815 | 0.774 | 0.961 | 0.815 | 0.885 | 0.89 | 0.909 | 1.02 | 0.803 | 1.1 | 0.858 | 1.02 | 0.874 | 1.24
11 | Cc1cc(S(=O)(=O)[O-])c2c(C)ccc(C(C)C)cc1-2.[Na+] [Sodium gualenate] | 1.02 | 1.08 | 1.21 | 1.01 | 1.09 | 0.698 | 1.14 | 0.935 | 0.601 | 0.413 | 1 | 1.12 | 1.06 | 1.08 | 0.952 | 0.687 | 0.724 | 0.964 | 0.698 | 0.804
12 | CN(C)CCN1C(=O)c2cccc3cc(N)cc(c23)C1=O [Amonafide] | 1.3 | 1.22 | 1.61 | 1.27 | 1.31 | 1.64 | 1.15 | 1.42 | 0.917 | 1.51 | 1.14 | 1.15 | 1.89 | 1.59 | 1.19 | 4.51 | 0.494 | 1.99 | 0.337 | 1.71
13 | CC(C(=O)O)c1ccc2c(c1)[nH]c1ccc(Cl)cc12 (stereo not given) [Carprofen] | 1.11 | 1.09 | 1.12 | 0.747 | 1.19 | 0.79 | 1.12 | 0.84 | 0.738 | 0.962 | 0.996 | 0.676 | 0.943 | 0.815 | 0.726 | 0.741 | 0.709 | 0.791 | 0.755 | 0.891
14 | CCCCCCCCCCCCCCCCCCOP(=O)([O-])OC1CC[N+](C)(C)CC1 [Perifosine (KRX-0401)] | 0.946 | 0.998 | 0.826 | 1.16 | 0.91 | 1.56 | 0.615 | 1.17 | 0.534 | 0.922 | 1.03 | 1.27 | 0.853 | 1.1 | 0.861 | 0.985 | 0.681 | 0.975 | 0.58 | 0.706
15 | Cc1cn(-c2cc(NC(=O)c3ccc(C)c(Nc4nccc(-c5cccnc5)n4)c3)cc(C(F)(F)F)c2)cn1.Cl [Nilotinib hydrochloride] | 1.18 | 1.14 | 0.917 | 1.11 | 0.855 | 1.57 | 0.845 | 1.18 | 1.58 | 1.8 | 1.04 | 1.34 | 1.05 | 1.08 | 0.878 | 1.21 | 0.924 | 0.926 | 0.778 | 2.78
16 | CNC(=O)c1ccccc1Sc1ccc2c(/C=C/c3ccccn3)n[nH]c2c1 [Axitinib] | 1.01 | 0.961 | 0.98 | 1.14 | 0.968 | 1.25 | 0.824 | 1.12 | 0.863 | 1.11 | 0.975 | 1.22 | 0.989 | 1.67 | 0.833 | 2.28 | 0.373 | 1.24 | 0.411 | 1.35
17 | CC(C)=CCCC(C)(OC1OC(CO)C(O)C(O)C1O)C1CCC2(C)C1C(O)CC1C3(C)CCC(O)C(C)(C)C3C(OC3OC(CO)C(O)C(O)C3O)CC12C (stereo not given) [Ginsenoside Rg1] | 1.16 | 1.24 | 1.12 | 1.55 | 1.01 | 1.65 | 1.13 | 1.55 | 1.14 | 1.1 | 1.07 | 1.17 | 1.16 | 1.25 | 1.1 | 1.22 | 1.11 | 0.766 | 1.04 | 0.922
18 | Cc1ccc(-c2cc(C(F)(F)F)nn2-c2ccc(S(N)(=O)=O)cc2)cc1 [Celecoxib] | 0.939 | 1.16 | 0.778 | 1.31 | 1.37 | 0.963 | 1.43 | 1.06 | 0.69 | 0.686 | 0.928 | 0.833 | 0.886 | 1.03 | 0.887 | 0.862 | 0.945 | 1.03 | 0.887 | 1.42
19 | CNCc1ccc(-c2[nH]c3cc(F)cc4c3c2CCNC4=O)cc1.O=P(O)(O)O | 1.01 | 1.09 | 1.04 | 1.28 | 0.844 | 1.07 | 0.798 | 0.993 | 0.763 | 1.04 | 0.844 | 1.08 | 0.906 | 1.06 | 0.761 | 0.98 | 0.532 | 0.719 | 0.499 | 0.674
20 | NC(CCC(=O)NC(CS)C(=O)NCC(=O)O)C(=O)O (stereo not given) [Glutathione] | 1.06 | 1.07 | 1.05 | 0.938 | 0.989 | 0.834 | 0.895 | 1.07 | 0.909 | 0.971 | 1.02 | 0.979 | 0.957 | 0.743 | 0.902 | 0.881 | 0.921 | 0.925 | 0.972 | 0.812
21 | CN1CCC(=C2c3ccccc3CCc3sccc32)CC1.O=C(O)CC(O)C(=O)O [Pizotifen Malate] | 0.894 | 1.56 | 1.12 | 1.56 | 1.3 | 1.05 | 1.53 | 1.03 | 0.757 | 0.878 | 1.01 | 0.952 | 0.91 | 1.06 | 0.958 | 1.04 | 1.01 | 1.12 | 1.02 | 1.32
22 | CC(C(=O)[O-])c1cccc(Oc2ccccc2)c1.CC(C(=O)[O-])c1cccc(Oc2ccccc2)c1.[Ca+2] (stereo not given) [Fenoprofen Calcium] | 0.894 | 1.37 | 0.977 | 1.37 | 1.34 | 1.01 | 1.33 | 1 | 0.734 | 0.893 | 0.96 | 0.959 | 0.812 | 0.947 | 0.786 | 0.87 | 0.766 | 0.944 | 0.593 | 0.76
23 | Nc1c(CC(=O)[O-])cccc1C(=O)c1ccccc1.O.[Na+] [Amfenac Sodium Monohydrate] | 1.04 | 0.972 | 0.858 | 0.963 | 1.21 | 0.846 | 0.974 | 0.884 | 0.968 | 1.08 | 0.989 | 0.695 | 0.824 | 0.614 | 0.825 | 0.668 | 0.851 | 0.783 | 0.897 | 0.777
24 | COC(=O)c1cc(OC)c2c(c1-c1c(C(=O)OC)cc(OC)c3c1OCO3)OCO2 [Bifendate] | 0.802 | 1.23 | 0.842 | 1.08 | 0.744 | 1.11 | 1.04 | 0.752 | 0.943 | 0.735 | 0.826 | 1.21 | 0.819 | 0.989 | 0.766 | 0.983 | 1.11 | 0.903 | 1.02 | 0.656
